Reference: a collection of fitness landscapes (doi:10.1126/science.1257360)
The list shows a part of the results.

B1: PhoQ; a variant is named by its letters at X, in order, P23837 (parent)
chain: MKKLLRLFFPLSLRVRFLLATAAVVLVLSLAYGMVALIGYSVSFDKTTFRLLRGESNLFYTLAKWENNKLHVELPENIDKQSPTMTLIYDENGQLLWAQRDVPWLMKMIQPDWLKSNGFHEIEADVNDTSLLLSGDHSIQQQLQEVREDDDDAEMTHSVAVNVYPATSRMPKLTIVVVDTIPVELKSSYMVWSWFIYVLSANLLLVIPLLWVAAWWSLRPIEALAKEVRELEEHNRELLNPATTRELTSLVRNLNRLLKSERERYDKYRTTLTDLTHSLKTPLXXLQXXLRSLRSEKMSVSDAEPVMLEQISRISQQIGYYLHRASMRGGTLLSRELHPVAPLLDNLTSALNKVYQRKGVNISLDISPEISFVGEQNDFVEVMGNVLDNACKYCLEFVEISARQTDEHLYIVVEDDGPGIPLSKREVIFDRGQRVDTLRPGQGVGLAVAREITEQYEGKIVAGESMLGGARMEVIFGRQHSAPKDE

Variants of: B1
Experiment: enrichment ratio after two sorts for PhoP signalling (ratio (wild type AVST 3.29)); higher = more functional
Conditions: with PhoP (E. coli)

Row | Variant | enrichment ratio
1 | SNDG | ≤ 0.25
2 | FSDR | ≤ 0.25
3 | HGNE | ≤ 0.25
4 | LTHD | ≤ 0.25
5 | NAKD | ≤ 0.25
6 | GHHC | ≤ 0.25
7 | EVLN | ≤ 0.25
8 | FNDW | ≤ 0.25
9 | PYSP | ≤ 0.25
10 | FPMQ | ≤ 0.25
11 | AQYG | ≤ 0.25
12 | SAST | 8.9
13 | NFGM | ≤ 0.25
14 | PTFR | ≤ 0.25
15 | FQEI | ≤ 0.25
16 | GHRL | ≤ 0.25
17 | DVSF | ≤ 0.25
18 | NSLY | ≤ 0.25
19 | PAQE | ≤ 0.25
20 | SMRS | ≤ 0.25
21 | QISC | 7.57
22 | IEGL | ≤ 0.25
23 | LQLM | 2
24 | KKPV | ≤ 0.25

Row | Variant | enrichment ratio
25 | VTLF | 10.2
26 | YAPR | ≤ 0.25
27 | WQRG | ≤ 0.25
28 | SYTQ | ≤ 0.25
29 | WCHG | ≤ 0.25
30 | NTNA | ≤ 0.25
31 | TYYA | ≤ 0.25
32 | QYYE | ≤ 0.25
33 | TPYH | ≤ 0.25
34 | WSVT | ≤ 0.25
35 | RNEH | ≤ 0.25
36 | AIRN | ≤ 0.25
37 | ATGM | 6.99
38 | DETK | ≤ 0.25
39 | DGHA | ≤ 0.25
40 | FDCR | 1.65
41 | EFVE | ≤ 0.25
42 | NYTK | ≤ 0.25
43 | SYCL | 0.491
44 | WELD | ≤ 0.25
45 | FSPL | ≤ 0.25
46 | FRFC | ≤ 0.25
47 | KLSN | ≤ 0.25
48 | DEWD | ≤ 0.25

Row | Variant | enrichment ratio
49 | TWMF | ≤ 0.25
50 | HDYF | ≤ 0.25
51 | QNGV | 22.1
52 | ERPH | ≤ 0.25
53 | TKCE | 7.83
54 | GSGR | ≤ 0.25
55 | FDQM | ≤ 0.25
56 | KELW | ≤ 0.25
57 | RHTH | ≤ 0.25
58 | DTPT | ≤ 0.25
59 | DDVY | ≤ 0.25
60 | MDTE | ≤ 0.25
61 | LQVY | ≤ 0.25
62 | GKFQ | ≤ 0.25
63 | DWWV | ≤ 0.25
64 | QLPC | ≤ 0.25
65 | QCPS | ≤ 0.25
66 | QWHQ | ≤ 0.25
67 | TCTQ | 21.4
68 | HSFS | ≤ 0.25
69 | SAIA | 1.81
70 | HRDD | ≤ 0.25
71 | QKAL | ≤ 0.25
72 | LLHN | ≤ 0.25

Row | Variant | enrichment ratio
73 | GYSI | ≤ 0.25
74 | RDDQ | ≤ 0.25
75 | FIYP | ≤ 0.25
76 | TDYH | 0.306
77 | FMTL | ≤ 0.25
78 | IACW | ≤ 0.25
79 | EEYH | ≤ 0.25
80 | AESL | 11.7
81 | DNLR | ≤ 0.25
82 | FHKS | ≤ 0.25
83 | NETR | ≤ 0.25
84 | VGNL | ≤ 0.25
85 | RERN | ≤ 0.25
86 | SFTQ | ≤ 0.25
87 | KCRN | ≤ 0.25
88 | FGAA | ≤ 0.25
89 | RMNV | ≤ 0.25
90 | FMSV | ≤ 0.25
91 | WEIM | ≤ 0.25
92 | SLLI | 7.62
93 | NDMS | ≤ 0.25
94 | QFVI | ≤ 0.25
95 | AWQG | ≤ 0.25
96 | YMQN | ≤ 0.25

Row | Variant | enrichment ratio
97 | KKAF | ≤ 0.25
98 | LAIT | ≤ 0.25
99 | PYNV | ≤ 0.25
100 | QVRI | ≤ 0.25
101 | YNGR | ≤ 0.25
102 | HEQG | 1.5
103 | FHSD | ≤ 0.25
104 | GCLD | ≤ 0.25
105 | VNNY | ≤ 0.25
106 | GDCW | ≤ 0.25
107 | VQTS | ≤ 0.25
108 | QLSK | ≤ 0.25
109 | RYAM | 1.26
110 | KIYW | ≤ 0.25
111 | LCHM | ≤ 0.25
112 | MMHR | ≤ 0.25
113 | SNVT | 3.04
114 | IYPD | ≤ 0.25
115 | NFSS | ≤ 0.25
116 | DDWS | ≤ 0.25
117 | DMGI | ≤ 0.25
118 | ACMW | ≤ 0.25
119 | TWPF | ≤ 0.25
120 | VCAH | ≤ 0.25

Row | Variant | enrichment ratio
121 | GMFT | ≤ 0.25
122 | VVQN | ≤ 0.25
123 | MQWG | 4.64
124 | DRKI | ≤ 0.25
125 | QWRH | ≤ 0.25
126 | TQCM | 33.7
127 | LDYH | ≤ 0.25
128 | RYCA | ≤ 0.25
129 | QSPL | ≤ 0.25
130 | PHFV | ≤ 0.25
131 | EFFL | ≤ 0.25
132 | DFCG | ≤ 0.25
133 | TTIC | ≤ 0.25
134 | PQLE | ≤ 0.25
135 | MWHS | ≤ 0.25
136 | EGGG | ≤ 0.25
137 | TFGL | 0.381
138 | DICK | ≤ 0.25
139 | MPQT | ≤ 0.25
140 | GITW | 1.88
141 | MCIT | ≤ 0.25
142 | GPCY | ≤ 0.25
143 | YEHR | ≤ 0.25
144 | FNFC | ≤ 0.25

Row | Variant | enrichment ratio
145 | AELA | 18.7
146 | PSRT | ≤ 0.25
147 | KHKY | ≤ 0.25
148 | MYWW | ≤ 0.25
149 | GDQA | ≤ 0.25
150 | SEDL | ≤ 0.25
151 | TKSK | ≤ 0.25
152 | VQVG | ≤ 0.25
153 | RFLQ | ≤ 0.25
154 | DGTV | ≤ 0.25
155 | FFRV | ≤ 0.25
156 | QLSR | ≤ 0.25
157 | QPQS | ≤ 0.25
158 | AFIQ | ≤ 0.25
159 | DVED | ≤ 0.25
160 | IRSD | ≤ 0.25
161 | DDYY | ≤ 0.25
162 | DILY | ≤ 0.25
163 | ISDC | ≤ 0.25
164 | SSRS | ≤ 0.25
165 | IRSF | ≤ 0.25
166 | TPSM | ≤ 0.25
167 | YSRS | ≤ 0.25
168 | NHCV | ≤ 0.25

Row | Variant | enrichment ratio
169 | NSFW | ≤ 0.25
170 | GFKQ | ≤ 0.25
171 | NYCA | ≤ 0.25
172 | KDNS | ≤ 0.25
173 | DMYS | ≤ 0.25
174 | DLCT | ≤ 0.25
175 | QQYE | ≤ 0.25
176 | HRDA | ≤ 0.25
177 | PKNK | ≤ 0.25
178 | FVTC | ≤ 0.25
179 | IMAN | ≤ 0.25
180 | ISPD | ≤ 0.25
181 | RGCP | ≤ 0.25
182 | IHTD | ≤ 0.25
183 | KIFS | ≤ 0.25
184 | IHCV | ≤ 0.25
185 | AEKP | ≤ 0.25
186 | EYVN | ≤ 0.25
187 | NGDI | ≤ 0.25
188 | RVKI | ≤ 0.25
189 | GLSI | 11
190 | LTKH | ≤ 0.25
191 | HEHT | ≤ 0.25
192 | SMAL | 8.61

Row | Variant | enrichment ratio
193 | SREY | ≤ 0.25
194 | SQHL | ≤ 0.25
195 | VKMK | ≤ 0.25
196 | WKAM | ≤ 0.25
197 | RVFI | ≤ 0.25
198 | FFNM | ≤ 0.25
199 | LEWQ | ≤ 0.25
200 | LFPY | ≤ 0.25
201 | RLMP | ≤ 0.25
202 | GYVG | ≤ 0.25
203 | SWEP | ≤ 0.25
204 | GQWM | ≤ 0.25
205 | KKYS | ≤ 0.25
206 | MFPK | ≤ 0.25
207 | VRSN | ≤ 0.25
208 | ECKC | ≤ 0.25
209 | VKSW | ≤ 0.25
210 | RGDT | ≤ 0.25
211 | MEHF | ≤ 0.25
212 | IEMR | ≤ 0.25
213 | MKWL | 4.42
214 | ESIA | ≤ 0.25
215 | QVLD | ≤ 0.25
216 | NWHR | ≤ 0.25

Row | Variant | enrichment ratio
217 | QSCC | ≤ 0.25
218 | KFKW | ≤ 0.25
219 | WCQK | ≤ 0.25
220 | RRKC | ≤ 0.25
221 | RDSK | ≤ 0.25
222 | PCIR | ≤ 0.25
223 | VYAQ | ≤ 0.25
224 | KYFY | ≤ 0.25
225 | MLHQ | ≤ 0.25
226 | YSHF | ≤ 0.25
227 | WASP | ≤ 0.25
228 | PAKC | ≤ 0.25
229 | DDNA | ≤ 0.25
230 | TGNK | ≤ 0.25
231 | HQEM | ≤ 0.25
232 | INNN | ≤ 0.25
233 | RNDQ | ≤ 0.25
234 | EHKC | ≤ 0.25
235 | VDSK | ≤ 0.25
236 | MGQK | ≤ 0.25
237 | SSTW | ≤ 0.25
238 | VMMS | ≤ 0.25
239 | PSDD | ≤ 0.25
240 | PEGT | ≤ 0.25

Row | Variant | enrichment ratio
241 | MDVF | ≤ 0.25
242 | CQVY | 5.8
243 | VKFA | ≤ 0.25
244 | SKIM | 20.9
245 | DKCQ | ≤ 0.25
246 | NCFS | ≤ 0.25
247 | WLYQ | ≤ 0.25
248 | SSMI | 19
249 | SLPD | ≤ 0.25
250 | GWHK | ≤ 0.25
251 | QQLP | ≤ 0.25
252 | KAHK | ≤ 0.25
253 | TEFH | 12.1
254 | DRAE | ≤ 0.25
255 | WMPG | ≤ 0.25
256 | RLTI | ≤ 0.25
257 | AIPN | ≤ 0.25
258 | IIAS | ≤ 0.25
259 | IYLQ | ≤ 0.25
260 | YENM | ≤ 0.25
261 | MYSK | 0.585
262 | DMNG | ≤ 0.25
263 | SNMY | 6.32
264 | MAWN | 23.5

Row | Variant | enrichment ratio
265 | IIQF | ≤ 0.25
266 | DIIP | ≤ 0.25
267 | KYVG | ≤ 0.25
268 | LIST | ≤ 0.25
269 | ICEH | ≤ 0.25
270 | QLYN | ≤ 0.25
271 | WSDT | ≤ 0.25
272 | HDSC | ≤ 0.25
273 | LLGF | ≤ 0.25
274 | IWDT | ≤ 0.25
275 | GFPN | ≤ 0.25
276 | EFFD | ≤ 0.25
277 | DFSR | 0.643
278 | SFRK | ≤ 0.25
279 | RPSS | ≤ 0.25
280 | TCKH | ≤ 0.25
281 | NKSD | ≤ 0.25
282 | SLVL | 1.22
283 | FYYH | ≤ 0.25
284 | SFMV | ≤ 0.25
285 | DVTQ | ≤ 0.25
286 | WNIS | ≤ 0.25
287 | ANND | ≤ 0.25
288 | TCLG | 0.681

Row | Variant | enrichment ratio
289 | IPTW | ≤ 0.25
290 | PWWF | ≤ 0.25
291 | ELFA | ≤ 0.25
292 | AVYI | ≤ 0.25
293 | NYLK | ≤ 0.25
294 | AKCN | 5.46
295 | GPAL | ≤ 0.25
296 | PFLH | ≤ 0.25
297 | SKKF | ≤ 0.25
298 | FIQG | ≤ 0.25
299 | ANYL | 0.346
300 | ESFT | ≤ 0.25
301 | VCDR | ≤ 0.25
302 | KPSW | ≤ 0.25
303 | EIVH | ≤ 0.25
304 | TDLC | 11.7
305 | GQSK | ≤ 0.25
306 | MFMV | ≤ 0.25
